The source of these data is PubChem BioAssay AID463173 (ICCB-Longwood Screening Facility, Harvard Medical School, 2010).

Structures are written as SMILES. Screen size: about 52,000 compounds; about 4,300 (8.3%) were called active. No stated cut-off is given here; in the data, active means survival mostly below about 52% (no sharp cut-off); inactive means mostly above about 56%. The list shows a part of the results.

For this assay, the system named is DeltatarO mutant. The experiment in a line: S. aureus survival, RN4220 and DeltatarO strains – OD600, teichoic acid synthesis inhibitors, primary screen (AID 463173). Particulars: S. aureus RN4220 wild type/DeltatarO growth, OD600, 18 h, hits give low values, screened at 18.75 µg/mL (by protocol).
As for `Cc1cc(N2CCN(C)CC2)nc2ccc(NC(=O)Nc3ccc(Cl)cc3)cc12`, the survival was inactive: 72%.

Turning to `COC(=O)c1scc(-c2ccc(C)cc2)c1S(=O)(=O)Nc1ccc(OC(F)(F)F)cc1`, the survival was inactive: 96%.

In the case of `CC(C)N(C(=O)CSc1nnnn1Cc1ccccc1)C(C)C`, the survival was inactive: 88%.

Consider `COCCNC(=O)CN1C(=O)COc2ccc(S(=O)(=O)N3CCOCC3)cc21`, for which the survival is inactive: 88%.

`C=Cc1ccc(CSc2nc(-c3ccccc3C)nc3c2Cc2c(CO)cnc(C)c2O3)cc1`: the survival was inactive: 58%.

Take `CCC1CCCCN1S(=O)(=O)c1ccc2c(c1)CCCN2C(C)=O` (configuration not stated): the survival is inactive: 70%.

With `CCn1cc(C(=O)OCC(=O)Nc2cccc(Cl)c2C)c(=O)c2ccc(C)nc21`, the survival was inactive: 66%.

With `CCc1ccccc1N(C)C(=O)Nc1cn(CC(C)C)c(=O)c2ccccc12`, the survival is inactive: 113%.

Take `COc1ccccc1CNC(=O)C(=O)NCC(c1cccnc1)N1CCN(c2ccccc2)CC1` (configuration not stated): the survival was inactive: 57%.

As for `Cc1noc(C)c1S(=O)(=O)N(CC(=O)NCc1ccccc1)c1ccc(C(C)C)cc1`, the survival was inactive: 72%.

With `O=C(COCc1cc(-c2ccco2)on1)Nc1cc(Cl)ccc1O`, the survival was active: 0%.

Regarding `COc1ccc(-c2nc(SCC(=O)NC3CCCC3)c(-c3ccc(F)cc3)[nH]2)cc1OC`, the survival was inactive: 60%.

With `CC(Oc1ccccc1)C(=O)NCc1ccccn1` (configuration not stated), the survival is inactive: 89%.

As for `CCN1C(=O)C2C(c3ccccc3C)NC(Cc3ccc(O)cc3)(C(=O)OC)C2C1=O` (configuration not stated), the survival is inactive: 77%.

On to `COc1ccc(C)cc1NC(=O)Cn1nc(N2CCN(c3ccccc3OC)CC2)ccc1=O`, for which the survival was inactive: 62%.

Consider `COc1ccccc1Cc1nc2ccccc2nc1SCC(=O)NCc1ccc(C)cc1`, for which the survival is inactive: 80%.

As to `CCN(CC)c1nc(Nc2ccc(Cl)cc2)nc(OCC#N)n1`, the survival was inactive: 102%.

With `COc1ccc(C(=O)N2CCN(C(=O)COc3ccccc3)CC2)cc1OC`, the survival was inactive: 66%.

Regarding `O=C(c1ccc2c(c1)N(Cc1ccccc1)C(=O)c1ccccc1S2(=O)=O)N1CCOCC1`, the survival is inactive: 88%.

Take `COc1ccc(NC(=O)C(NC(=O)/C=C\c2ccc3c(c2)OCO3)c2ccc(C)cc2)cc1` (configuration not stated): the survival was inactive: 66%.

With `CCc1ccc(-n2c(N3CCN(c4ccc(F)cc4)CC3)nc3ccccc3c2=O)cc1`, the survival is inactive: 83%.

For the compound `CC(C)c1nc2ccccc2c(=O)[nH]1`, the survival is inactive: 91%.

In the case of `O=C(Nc1ccc2oc(-c3cccnc3)nc2c1)c1ccccc1F`, the survival was inactive: 86%.

Turning to `CC(=O)N1CCCc2cc(S(=O)(=O)Nc3ccc(Cl)cc3F)ccc21`, the survival is inactive: 75%.

On to `COCCNC(=O)CCn1nc(-c2ccc(Cl)cc2)c2ccccc2c1=O`, for which the survival was inactive: 77%.

Take `COc1ccc(CC(=O)N2CCc3c([nH]c4ccccc34)C2c2ccc(SC)cc2)cc1` (configuration not stated): the survival was inactive: 78%.

In the case of `CC1CCN(C(c2ccc(F)cc2)c2sc3nc(-c4ccco4)nn3c2O)CC1` (configuration not stated), the survival was inactive: 75%.

Take `Cc1cccc(C(=O)N2CCc3cc(CNC(=O)c4ccco4)ccc32)c1`: the survival is inactive: 66%.

Consider `CCOCCc1nn2c(=O)cc(COC(=O)c3ccc(NC(=O)c4cccs4)cc3)nc2s1`, for which the survival was inactive: 112%.

Turning to `CCCNC(=O)c1ccc(Cn2c(SCC(=O)NC(C)C)nc3ccccc3c2=O)cc1`, the survival is inactive: 102%.

Take `COc1ccccc1CNc1nccn(-c2ccc(F)cc2)c1=O`: the survival was inactive: 87%.

As to `CCCn1c2ccccc2c2cnn(CC(=O)NCC3CCN(Cc4ccccc4C)CC3)c(=O)c21`, the survival was inactive: 55%.

Consider `COc1ccc(C(=O)Nc2nc(-c3ccc(Br)cc3)ns2)cc1`, for which the survival was active: 58%.

As for `Cc1csc2nc(COc3ccc(NC(=O)c4ccccc4F)cc3)cc(=O)n12`, the survival is inactive: 72%.

`COc1ccc(-c2nc3n(n2)C(c2ccc(O)cc2)C(C(=O)Nc2cccnc2)=C(C)N3)cc1OC` (configuration not stated): the survival was inactive: 86%.

For `Cc1ccc2c(c1)c1c3n2CCN=C3CCC1`, the survival was inactive: 106%.

In the case of `CCCCN(C)S(=O)(=O)c1ccc(C(=O)Nc2sc3c(c2C(=O)OCC)CCN(C(C)C)C3)cc1`, the survival was inactive: 73%.

Take `CCOC(=O)C1CCN(C(=O)C2CCN(S(=O)(=O)c3c(C)noc3/C=C/c3ccc(C)cc3)CC2)CC1`: the survival is inactive: 124%.

In the case of `COc1cc(OC)cc(C(=O)Nc2ccc3c(c2)CCCN3C(=O)c2cccs2)c1`, the survival was inactive: 112%.

For the compound `CCOC(=O)c1[nH]c(C)c(CCC(=O)N2CCN(c3ccc(OC)cc3)CC2)c1C`, the survival is inactive: 84%.

As for `COc1ccc(NC(=O)c2cccc3c(=O)c4c([nH]c23)CCCC4)cc1`, the survival is inactive: 64%.

Turning to `O=C(O)CCC(=O)N1CCc2cc(S(=O)(=O)NCc3ccc(F)cc3)ccc21`, the survival is inactive: 97%.

For `CCCC1=Nc2cc(C(=O)NCc3ccccc3)ccc2Sc2ccccc21`, the survival was inactive: 72%.

For `Cc1ccc(C(C)C)c(OCC(=O)Nc2ccc3c(c2)nc(CCNC(=O)c2ccco2)n3C)c1`, the survival was inactive: 54%.

`COc1ccc(NC(=O)Cn2c(=O)c3cccn3c3ccccc32)cc1`: the survival was inactive: 49%.

In the case of `Cn1c(=O)c2c(-c3ccccc3)n3c(c2n(C)c1=O)C(c1ccc([N+](=O)[O-])cc1)Nc1ccccc1-3` (configuration not stated), the survival was active: 34%.

With `COc1ccc(S(=O)(=O)NCCc2sc(-c3cccnc3)nc2C)cc1`, the survival was inactive: 101%.

As for `Cc1ccc(-n2ncc3c(Nc4ccc5c(c4)OCCO5)ncnc32)cc1Cl`, the survival is inactive: 117%.

For `CC(=O)Nc1ccc(OC(=O)N2CCCC2)cc1`, the survival was inactive: 86%.

On to `O=c1[nH]c2ccccc2c(O)c1-c1nc2ccccc2c(=O)[nH]1`, for which the survival was inactive: 100%.

As for `Cc1ccc(C(=O)c2oc3ccccc3c2NC(=O)c2cc(-c3ccccc3)on2)cc1`, the survival was inactive: 77%.

Consider `CCOCCCN1C(=O)CN(C2CCCCCC2)C(=O)C1c1ccc(OCC)c(OC)c1` (configuration not stated), for which the survival was inactive: 122%.

Regarding `CCOC(=O)c1c(NC(=O)c2ccc(S(=O)(=O)N3CCCC(C)C3)cc2)sc2c1CC(C)(C)NC2(C)C` (configuration not stated), the survival is inactive: 74%.

Regarding `CC1CC(C)CN(C(=O)c2ccc(Cl)cc2)C1` (configuration not stated), the survival was inactive: 96%.

As for `COc1ccc(Cl)c2sc(NC(=O)c3ccc(S(=O)(=O)N4CCCC4)cc3)nc12`, the survival is inactive: 98%.

For `COc1ccccc1NC(=O)CSCc1cc(=O)c2cccc(Cl)c2[nH]1`, the survival was inactive: 94%.

Consider `COc1ccc(OC)c(C2CC(=O)Nc3c2c(=O)n(C)c2ncnn32)c1` (configuration not stated), for which the survival was inactive: 166%.
